# Some of the results follow.
# What was measured:
# Experiment in all cases: glycan array binding signal (z-score within array); higher = stronger binding
# Conditions in all cases: glycan notation: IUPAC condensed, linker removed
# [1] = biological target: GlcNAc(b1-3)Gal(b1-4)GlcNAc(b1-2)Man(a1-3)[GlcNAc(b1-3)Gal(b1-4)GlcNAc(b1-2)Man(a1-6)]Man(b1-4)GlcNAc(b1-4)[Fuc(a1-6)]GlcNAc
# In short: (§1)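 Glycan array data came from 3228 arrays in the Consortium for Functional Glycomics database, and only arrays with an available protein sequence were kept. Glycan names were put into IUPAC-condensed notation, and columns mapping to the same glycan were averaged. The binding signal is a within-array Z-score, averaged across arrays of one protein sequence run at different concentrations or buffers and across linkers. A negative Z-score can be read as non-binding.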
# [2] = biological target: GlcNAc(b1-3)Gal(b1-4)GlcNAc(b1-2)[GlcNAc(b1-3)Gal(b1-4)GlcNAc(b1-6)]Man(a1-6)[GlcNAc(b1-3)Gal(b1-4)GlcNAc(b1-2)Man(a1-3)]Man(b1-4)GlcNAc(b1-4)GlcNAc
# In short: as §1
# [3] = biological target: GlcNAc(b1-3)Gal(b1-4)GlcNAc(b1-3)Gal(b1-4)GlcNAc
# In short: as §1
# [4] = biological target: GlcNAc(b1-3)Gal(b1-4)GlcNAc(b1-3)Gal(b1-4)GlcNAc(b1-2)Man(a1-3)[GlcNAc(b1-3)Gal(b1-4)GlcNAc(b1-3)Gal(b1-4)GlcNAc(b1-2)Man(a1-6)]Man(b1-4)GlcNAc(b1-4)GlcNAc
# In short: as §1
# [5] = biological target: GlcNAc(b1-3)Gal(b1-4)GlcNAc(b1-3)Gal(b1-4)GlcNAc(b1-2)Man(a1-3)[GlcNAc(b1-3)Gal(b1-4)GlcNAc(b1-3)Gal(b1-4)GlcNAc(b1-2)Man(a1-6)]Man(b1-4)GlcNAc(b1-4)[Fuc(a1-6)]GlcNAc
# In short: as §1
# [6] = biological target: GlcNAc(b1-3)Gal(b1-4)GlcNAc(b1-3)Gal(b1-4)GlcNAc(b1-2)[GlcNAc(b1-3)Gal(b1-4)GlcNAc(b1-3)Gal(b1-4)GlcNAc(b1-6)]Man(a1-6)[GlcNAc(b1-3)Gal(b1-4)GlcNAc(b1-3)Gal(b1-4)GlcNAc(b1-2)Man(a1-3)]Man(b1-4)GlcNAc(b1-4)[Fuc(a1-6)]GlcNAc
# In short: as §1
# [7] = biological target: GlcNAc(b1-3)Gal(b1-4)GlcNAc(b1-3)Gal(b1-4)GlcNAc(b1-3)Gal(b1-4)GlcNAc(b1-2)Man(a1-3)[GlcNAc(b1-3)Gal(b1-4)GlcNAc(b1-3)Gal(b1-4)GlcNAc(b1-3)Gal(b1-4)GlcNAc(b1-2)Man(a1-6)]Man(b1-4)GlcNAc(b1-4)GlcNAc
# In short: as §1
# [8] = biological target: GlcNAc(b1-3)Gal(b1-4)GlcNAc(b1-3)Gal(b1-4)GlcNAc(b1-3)Gal(b1-4)GlcNAc(b1-2)Man(a1-3)[GlcNAc(b1-3)Gal(b1-4)GlcNAc(b1-3)Gal(b1-4)GlcNAc(b1-3)Gal(b1-4)GlcNAc(b1-2)Man(a1-6)]Man(b1-4)GlcNAc(b1-4)[Fuc(a1-6)]GlcNAc
# In short: as §1
# [9] = biological target: GlcNAc(b1-3)Gal(b1-4)GlcNAc(b1-3)Gal(b1-4)GlcNAc(b1-3)Gal(b1-4)GlcNAc(b1-2)[GlcNAc(b1-3)Gal(b1-4)GlcNAc(b1-3)Gal(b1-4)GlcNAc(b1-3)Gal(b1-4)GlcNAc(b1-6)]Man(a1-6)[GlcNAc(b1-3)Gal(b1-4)GlcNAc(b1-3)Gal(b1-4)GlcNAc(b1-3)Gal(b1-4)GlcNAc(b1-2)Man(a1-3)]Man(b1-4)GlcNAc(b1-4)[Fuc(a1-6)]GlcNAc
# In short: as §1
# [10] = biological target: GlcNAc(b1-3)Gal(b1-4)GlcNAc(b1-3)Gal(b1-4)GlcNAc(b1-3)Gal(b1-4)GlcNAc(b1-3)Gal(b1-4)GlcNAc(b1-2)Man(a1-3)[GlcNAc(b1-3)Gal(b1-4)GlcNAc(b1-3)Gal(b1-4)GlcNAc(b1-3)Gal(b1-4)GlcNAc(b1-3)Gal(b1-4)GlcNAc(b1-2)Man(a1-6)]Man(b1-4)GlcNAc(b1-4)GlcNAc
# In short: as §1
# [11] = biological target: GlcNAc(b1-3)Gal(b1-4)GlcNAc(b1-3)Gal(b1-4)GlcNAc(b1-3)Gal(b1-4)GlcNAc(b1-3)Gal(b1-4)GlcNAc(b1-2)Man(a1-3)[GlcNAc(b1-3)Gal(b1-4)GlcNAc(b1-3)Gal(b1-4)GlcNAc(b1-3)Gal(b1-4)GlcNAc(b1-3)Gal(b1-4)GlcNAc(b1-2)Man(a1-6)]Man(b1-4)GlcNAc(b1-4)[Fuc(a1-6)]GlcNAc
# In short: as §1
# [12] = biological target: GlcNAc(b1-3)Gal(b1-4)GlcNAc(b1-3)Gal(b1-4)GlcNAc(b1-3)Gal(b1-4)GlcNAc(b1-3)Gal(b1-4)GlcNAc(b1-2)[GlcNAc(b1-3)Gal(b1-4)GlcNAc(b1-3)Gal(b1-4)GlcNAc(b1-3)Gal(b1-4)GlcNAc(b1-3)Gal(b1-4)GlcNAc(b1-6)]Man(a1-6)[GlcNAc(b1-3)Gal(b1-4)GlcNAc(b1-3)Gal(b1-4)GlcNAc(b1-3)Gal(b1-4)GlcNAc(b1-3)Gal(b1-4)GlcNAc(b1-2)Man(a1-3)]Man(b1-4)GlcNAc(b1-4)[Fuc(a1-6)]GlcNAc
# In short: as §1
# [13] = biological target: GlcNAc(b1-3)Gal(b1-4)GlcNAc(b1-3)Gal(b1-4)GlcNAc(b1-3)GalNAc
# In short: as §1
# [14] = biological target: GlcNAc(b1-3)Gal(b1-4)GlcNAc(b1-3)GalNAc
# In short: as §1
# [15] = biological target: GlcNAc(b1-3)Gal(b1-4)GlcNAc(b1-3)[GlcNAc(b1-3)Gal(b1-4)GlcNAc(b1-3)]GalNAc
# In short: as §1
# [16] = biological target: GlcNAc(b1-3)Gal(b1-4)GlcNAc(b1-6)[Gal(b1-3)]GalNAc
# In short: as §1
# [17] = biological target: GlcNAc(b1-3)Gal(b1-4)GlcNAc(b1-6)[GlcNAc(b1-3)Gal(b1-3)]GalNAc
# In short: as §1
# [18] = biological target: GlcNAc(b1-3)Gal(b1-4)GlcNAc(b1-6)[GlcNAc(b1-3)]Gal(b1-4)GlcNAc
# In short: as §1
# [19] = biological target: GlcNAc(b1-3)GalNAc
# In short: as §1
# [20] = biological target: GlcNAc(b1-3)Man
# In short: as §1
# [21] = biological target: GlcNAc(b1-3)[GlcNAc(b1-4)][GlcNAc(b1-6)]GlcNAc
# In short: as §1
# [22] = biological target: GlcNAc(b1-3)[GlcNAc(b1-6)]Gal(b1-4)GlcNAc
# In short: as §1
# [23] = biological target: GlcNAc(b1-3)[GlcNAc(b1-6)]GalNAc
# In short: as §1
# [24] = biological target: GlcNAc(b1-3)[GlcNAc(b1-6)]GlcNAc
# In short: as §1
# [25] = biological target: GlcNAc(b1-4)Gal(b1-4)GlcNAc
# In short: as §1
# [26] = biological target: GlcNAc(b1-4)GlcNAc
# In short: as §1
# [27] = biological target: GlcNAc(b1-4)GlcNAc(b1-4)GlcNAc
# In short: as §1
# [28] = biological target: GlcNAc(b1-4)GlcNAc(b1-4)GlcNAc(b1-4)GlcNAc(b1-4)GlcNAc
# In short: as §1
# [29] = biological target: GlcNAc(b1-4)GlcNAc(b1-4)GlcNAc(b1-4)GlcNAc(b1-4)GlcNAc(b1-4)GlcNAc
# In short: as §1
# [30] = biological target: GlcNAc(b1-4)[GlcNAc(b1-6)]GalNAc
# In short: as §1
# [31] = biological target: GlcNAc(b1-6)Gal(b1-4)GlcNAc
# In short: as §1
# [32] = biological target: GlcNAc(b1-6)GalNAc
# In short: as §1
# [33] = biological target: GlcNAc6S(b1-3)Gal(b1-4)GlcNAc
# In short: as §1
# [34] = biological target: Kdn(a2-3)Gal(b1-3)GalNAc
# In short: as §1
# [35] = biological target: Kdn(a2-3)Gal(b1-3)GlcNAc
# In short: as §1
# [36] = biological target: Kdn(a2-3)Gal(b1-4)Glc
# In short: as §1
# [37] = biological target: Kdn(a2-3)Gal(b1-4)GlcNAc
# In short: as §1
binder,measurement,setting,value
XL-35 (Xenopus laevis) (protein) MLVHILLLLVTGGLSQSCDPVVIVASKNMVKQLDCDKFRNCKEIKDSNEEAQDGIYTLTSPDGISYQTFCDMTTNGGGWTLVASVHENNMAGKCTIGDRWSSQQGNRADYPEGDGNWANYNTFGSAGGATSDDYKNPGYYDIEAYNLGVWHVPNKTPLSVWRNSSLQRYRTTDGILFKHGGNLFSLYRIYPVKYGIGSCSKDSGPTVPVVYDLGSANLTASFYSPGFRSQFTPGYIQFRPINTEKAALALCPGMKMESCNVEHVCIGGGGYFPEADPRQCGDFAAYDFNGYGTKKFNSAGIEITEAAVLLFYL,glycan array binding signal (z-score),[1],0.112
same,glycan array binding signal (z-score),[2],0.95
same,glycan array binding signal (z-score),[3],-0.183
same,glycan array binding signal (z-score),[4],0.378
same,glycan array binding signal (z-score),[5],-0.169
same,glycan array binding signal (z-score),[6],0.656
same,glycan array binding signal (z-score),[7],-0.145
same,glycan array binding signal (z-score),[8],0.253
same,glycan array binding signal (z-score),[9],0.624
same,glycan array binding signal (z-score),[10],-0.054
same,glycan array binding signal (z-score),[11],-0.435
same,glycan array binding signal (z-score),[12],0.094
same,glycan array binding signal (z-score),[13],0.027
same,glycan array binding signal (z-score),[14],-0.289
same,glycan array binding signal (z-score),[15],-0.306
same,glycan array binding signal (z-score),[16],-0.266
same,glycan array binding signal (z-score),[17],-0.324
same,glycan array binding signal (z-score),[18],0.558
same,glycan array binding signal (z-score),[19],-0.048
same,glycan array binding signal (z-score),[20],-0.034
same,glycan array binding signal (z-score),[21],-0.056
same,glycan array binding signal (z-score),[22],-0.01
same,glycan array binding signal (z-score),[23],-0.078
same,glycan array binding signal (z-score),[24],-0.058
same,glycan array binding signal (z-score),[25],4.54
same,glycan array binding signal (z-score),[26],-0.157
same,glycan array binding signal (z-score),[27],0.158
same,glycan array binding signal (z-score),[28],-0.216
same,glycan array binding signal (z-score),[29],0.219
same,glycan array binding signal (z-score),[30],-0.295
same,glycan array binding signal (z-score),[31],-0.191
same,glycan array binding signal (z-score),[32],-0.291
same,glycan array binding signal (z-score),[33],0.186
same,glycan array binding signal (z-score),[34],-0.017
same,glycan array binding signal (z-score),[35],-0.119
same,glycan array binding signal (z-score),[36],-0.561
same,glycan array binding signal (z-score),[37],0.144

# Source: the supplement of paper PMC8728848
